# The source holds several records for some structures; these can differ, active in one and inactive in another.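 Note: values are percent growth. 100 is the growth of untreated cells, values between 100 and 0 indicate rising inhibition; between -100 and 0 indicates cell death.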 Some entries of the source have several records that differ or are many. They are shown here; other results are not. Rule for the calls: active = growth percent below 10; inactive = the rest. An entry can have further records. These are repeated runs of one drug, at its own concentration, as given; each value is one run. Signs of the kind (2×) give the number of equal values in this list.
# Tested on: EKVX NSCLC
# Assay: NCI-60 one-dose screen, 48 h (100 = growth as untreated, 0 = no growth, -100 = all killed)
compound,measurement,setting,value
COc1cccc2c1C(=O)c1c(O)c3c(c(O)c1C2=O)C[C@@](O)(C(=O)CO)C[C@@H]3OC1CC(N)C(O)C(C)O1 (stereo not given in full),growth,"0.25 µM, runs of 2010","inactive: 84.7, 91.2, 80.5, 91.9, 80.3, 86.9, 77.8, 88.1, 83.7, 69.8, 72.5, 76.3, 69.9, 86.2, 92.5, 82 (2×), 92.1 (2×), 103, 96.3, 89.7, 99.7, 87, 96.6, 96.8, 96.4, 92.3, 96.1, 97.6, 98.2, 95.5, 93.5, 70.8, 71.8, 71.1, 84.5, 83.4, 73.5, 83, 72, 82.4, 86.1, 78.3, 85.4, 76.5, 86.8, 94.1, 94.9, 86.6, 91.6, 89, 82.6, 91.5, 86.4%"
same,growth,"0.25 µM, runs of 2011","inactive: 96.1, 88.9, 72.7, 67.8, 84.5, 89.5, 94.9 (2×), 88, 85.6, 86.9 (2×), 95.3, 90, 86.4, 86.8, 84.8, 79, 87.6, 89.1, 91.2 (2×), 88.1 (2×), 88.3, 90.2, 94, 87.1, 98.6, 97.5, 85.4 (2×), 74.9, 91.3, 92.3 (2×), 80.1, 78.4, 84.1, 81.9, 73.1, 63, 68.7, 81.5, 73.6, 73.9, 79.4, 82.4, 82.6, 83.4, 85, 80.3, 95.2, 68.5, 87.3, 96.6, 97.6, 89.7, 92, 74, 61.4, 60.2%"
same,growth,"0.25 µM, runs of 2012","inactive: 82.5, 74.4, 84.8, 76, 77, 87.5, 83.3 (2×), 90.4, 96.8, 86.5, 78.4, 86, 88, 69.3, 74.7, 82.4, 83.5%"
same,growth,"0.25 µM, runs of 2014","inactive: 64.7, 71.5, 69.5, 68.9, 80.8, 80.1 (2×), 79, 82.5, 85.6 (2×), 87, 85.5, 83, 88.8 (2×), 86, 81.9, 85, 86.2, 84.3, 81.7 (2×), 82.8, 84.5, 83.2, 87.3, 78.2 (3×), 80.4, 76.3, 75.7, 64.1 (2×), 63, 68, 75.8, 65.2, 65.6, 84.9, 74.6, 77.4, 75.6, 79.6, 67.1, 74.4, 73.2, 85.2, 75.9, 82.9, 87.6, 83.5, 90.6, 74.8, 82, 93.1, 75.4, 70.9, 81.2%"
same,growth,"0.25 µM, runs of 2015","inactive: 77.5 (2×), 80.3, 83.9, 80.5 (2×), 87.2, 81.2, 87, 86.2, 84.7, 90.3, 96.7, 80.6, 75.7, 85.7, 69.2 (2×), 80.4, 82.4, 91, 86.9, 83.3, 66.4, 62.3, 63.9, 69.8 (2×), 66.5, 75.1, 65.2, 67.3, 69.9, 69.7 (2×), 63.4, 64.5, 65.6, 61.7, 54.2, 60.9, 55.4, 49.6, 58.4, 61, 46.2, 50.9, 45.8, 50.5, 61.6, 75.3, 55.2, 60 (2×), 65.7, 56, 63.8, 69.1, 74.3, 69.4, 59.8, 68.4 (2×), 72.4, 70.7, 69.3, 63.3, 67.6, 62.5, 59.9, 67.8, 72.2, 62.2, 68.6, 62.7, 65.4, 64.9, 63.7%"
same,growth,"0.25 µM, runs of 2016","inactive: 72.9 (2×), 68.8, 69.7 (2×), 80, 78.6, 76.1 (2×), 73.5 (2×), 74.2, 66.5, 74.1, 68.2 (2×), 71.4, 60.6, 70.7, 76.7, 59.1 (2×), 56.3, 56.8, 52.7, 60.8, 65.2, 60.1 (2×), 64, 61.1, 59.4, 62.3, 63 (2×), 55.2, 58.9, 56.9, 57, 59.3 (2×), 63.4, 61.3 (2×), 68, 70.8, 68.4, 66.2, 60.9, 63.6, 56.6, 56.2, 57.7, 53.4, 57.5, 62, 58.3, 66.3, 65.4, 76.8, 74.3, 76, 75.9, 72.5, 75.8, 76.3, 73.6, 78, 83.4, 85.4, 74.6, 72.1, 69.5, 71.9, 69.1, 64.3, 70.2, 61.8, 67.2, 67.8% (2×)"
same,growth,"0.25 µM, runs of 2017","inactive: 71.4, 76.6, 64.7, 66.6 (2×), 70.2 (3×), 73.1 (2×), 67.1, 66.5, 64, 69.3 (2×), 67.5, 68.7, 67.4 (2×), 66, 79.1, 75.4, 76.5, 74.9, 81.2 (3×), 77.7 (2×), 80.9 (3×), 73.2, 76.3, 74.3, 77.4, 47, 58, 60.1, 65.1, 64.3, 62.2, 65.2, 69.6, 53.4, 62.6, 71.8, 74.2, 67.7, 67.2, 71.1, 70.7, 66.9, 60.4, 60.9, 63.3 (2×), 65, 64.5, 77, 83.3, 74.8, 81.4, 79.4, 82.9, 79 (2×), 84.2, 86.1, 75.9, 72.7, 78.1, 83.8, 79.3%"
same,growth,"0.25 µM, runs of 2018","inactive: 72.6, 73.1, 69 (3×), 70.9, 79.7, 74.8, 73.9, 77.4 (2×), 73.3, 70.8, 77.3, 76.7, 89.3, 85.3, 86.4, 89.4, 87.3, 78.9 (2×), 68.5, 64.7, 64.5, 79.3, 83, 89.7, 91.8, 88, 88.2, 62.8, 63.2, 66.3, 65.2, 63.8, 61.8, 66.2, 70.2, 74.5, 72.5, 80.4, 83.9, 88.3, 87.9, 98.8, 95.1, 93.1, 70.3, 72.1%"
same,growth,"0.25 µM, runs of 2019","inactive: 42.9, 63 (2×), 55.7, 58, 54.8, 56.8, 61.1, 68.3, 82, 79.6, 80.5, 72.5, 78.1 (2×), 74.2 (2×), 71.8, 71.1, 74.1 (2×), 61.4, 64.9, 64.5, 66, 69.7, 67.2, 72.4, 77.9, 70.2, 78.4, 73.2, 78.3, 53.4, 60.3, 61.7, 64.1 (2×), 66.6, 69.9, 68.5, 69.2%"
same,growth,"0.25 µM, runs of 2020","inactive: 59, 58, 64.8, 66.6, 63.4, 65.7, 66.1, 75.5, 74, 77.4, 61.2, 79.1, 83.1, 93.5, 79.3, 85, 92.3, 82.5, 83.5, 90.6, 68.3, 68.7, 59.5%"
same,growth,"0.25 µM, runs of 2021","inactive: 62.7, 71.8, 62.5, 76.3, 78.3, 73.9, 68.9 (2×), 70.9, 69.7 (2×), 69.9, 67.9, 68.2, 72.4, 64.3, 57.1, 56.6, 63.4 (2×), 62.2, 59.6, 63.6, 66.2, 67.6 (2×), 60.8, 76.9, 83.5, 81.5 (2×), 79.1, 47.2, 54.6, 65, 62, 61.8, 72.2, 66.3, 69.4, 78, 72.3, 69, 75.8, 66.7, 57.4, 65.4, 82.5, 49.9, 43.5, 57.6, 58.1, 58.7%"
same,growth,"0.25 µM, runs of 2022","inactive: 24.3, 24.4, 59.1, 59.4, 19.3, 71.1, 55, 72.5, 71, 82, 77.9, 89.6, 38.5, 40.3, 45.1, 78.1, 83.9, 81.2, 75.5, 89, 50.2, 49.2, 52.4, 53.2, 47%"
same,growth,"25 µM, runs of 1991","active: -24.2, -29.4, -28.8, -31.2, -67, -27.8, -32.8, -33.1, -22, -65.8, -35.2, -29, -30.8, -22.4, -20.8, -51.6, -9.02, -25.8%"
same,growth,"25 µM, runs of 1992","active: -38.4 (3×), -19.5, -21.6 (2×), -34.7, 0.246, -5.98, -14.4, -32, -42.3, -34.9 (2×), -18.5, -44.2, -31.2, -42.1, -7.73, -29.5, -36.3, 1.99, -20.7, -26.6, -35.5 (2×), -43.3, -29.3, -23.2, -37.8, 4.43, -28.5, -31.5, -68.7, -17.7, -25, -0.64, -21.1, -19.3 (2×), -21.8, -36.8, -19.2, -29, -22.6, -65.4, -55.9, -11, -65.9, -33.6, -19.6, -23.5, -26.9, -61.5, -70.5, -74.5, -21.4, -32.9, -24.1, -61, -55.1, -18.2, -25.2, -54.9, -50.6, -75.1, -27.9, -42.6, -18.3 (2×), -34.3, -20.8, -62.1, -40.6, -69.5, -67.3, -47.5, -6.08, -33.5, -27.5, -26.1, -22, -23.8 (2×), -45.1, -55.4, -35.3, -46.6, -51.3, -54.3, -13, -53.4, -13.8, -52.4, -39.4, -43.6 (2×), -46.5, -30.1, -6.77, -22.5, -47.1, -41 (2×), -65.8, -43.4, -93.5, -27.8, -18.1, -27 (2×), -42.2, 5.75, -38.2% and inactive: 98.4%"
same,growth,"25 µM, runs of 1993","active: -26.7, -12.7, -28.2, -44.4, 6.35, -56.8, -36.6, -48.2, -40.3, -7.5, 6.68, -26.9, -5.05, -12.1, -13.8, -37.3 (2×), -53.4, -42.4, -18.6, -7.12, -12.8, -38.3, -7.07, -17.3, 0.823, -38.7, 6.43, -21.3, -5.74, -35.1, -51.6, 4.54, -8.54, -24.3, -51.5, -11.7, -31.1, -40.8, -33.3, -44%"

# Source: PubChem BioAssay (NCI)
